Laboratory results: the supplement of paper PMC10502849
Some of the results follow. Repeats are few or missing, and single values can be far off. Square brackets hold non-standard residues; d marks the D form. Peptide text beside a SMILES is read from it. ξ: configuration not given here. Aoe(9ξ) = N[C@@H](CCCCCC(=O)C1CO1)C(=O)O; dPip = O=C(O)[C@H]1CCCCN1

Assays:
[1] = test system: H9 teratoma-derived LAM model cells, TSC2-/-; experiment: percent SyTOX+ dead cells; higher = more cytotoxic; settings: 5 µM, treatment time 72 h, culture: 3D hyaluronic acid hydrogel
[2] = test system: H9 teratoma-derived LAM model cells, WT; experiment: percent SyTOX+ dead cells; higher = more cytotoxic; settings: 5 µM, treatment time 72 h, culture: 3D hyaluronic acid hydrogel, genotype: WT
[3] = test system: H9 teratoma-derived LAM model cells, TSC2-/-; experiment: percent of cells invaded past median invasion distance of vehicle control; LAM is lymphangioleiomyomatosis; the cells come from teratomas of the human stem cell line H9; higher = more invasion; extreme values may be limits of the assay; settings: 5 µM, treatment time 72 h, culture: 3D hyaluronic acid hydrogel
[4] = test system: H9 teratoma-derived LAM model cells, WT; experiment: as above; settings: 5 µM, treatment time 72 h, culture: 3D hyaluronic acid hydrogel, genotype: WT
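For percent SyTOX+ dead cells in this document: cells seeded atop a hyaluronic acid gel crosslinked via MMP-cleavable peptides, containing vitronectin peptides and methylcellulose, imaged live by high-content microscopy with automated analysis, one technical replicate per compound.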
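For percent of cells invaded past median invasion distance of vehicle control in this document: live cells imaged by high content microscopy and scored with in-house automated image analysis, one technical replicate per compound in each genotype and rapamycin condition.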

Row | Structure (SMILES) | percent SyTOX+ dead cells ([1]; rapamycin 0 nM) | percent SyTOX+ dead cells ([1]; rapamycin 20 nM) | percent SyTOX+ dead cells ([2]; rapamycin 0 nM) | percent SyTOX+ dead cells ([2]; rapamycin 20 nM) | percent ([3]; rapamycin 0 nM) | percent ([3]; rapamycin 20 nM) | percent ([4]; rapamycin 0 nM) | percent ([4]; rapamycin 20 nM)
1 | O=C(NCCN1CCC2(CC1)C(=O)NCN2c1ccccc1)c1ccc2ccccc2c1 | 9.57% | 5.76% | 8.15% | 11.7% | 80.2% | 53.1% | 84.4% | 67.8%
2 | O=c1[nH]c2ccc(Cl)cc2c(N[C@@H]2CN3CCC2CC3)c1-c1nc2ccccc2[nH]1 | 42.2% | 36.2% | 12.6% | 62.1% | 0.92% | 24.4% | 1.57% | 0.77%
3 | O=C(O)CNC(=O)c1c(O)c2ccccc2n(Cc2ccccc2)c1=O | 10.7% | 8.95% | 11.2% | 11.2% | 34% | 23.2% | 39.5% | 35.9%
4 | CN(C)NC(=O)CCC(=O)O [Daminozide] | 31.4% | 28.6% | 22.3% | 24.3% | 2.27% | 2.82% | 15.1% | 8.23%
5 | c1ccc2c(c1)[I+]c1ccccc1-2 [Diphenyleneiodonium chloride, DPI] | 7.86% | 12.2% | 16.4% | 11% | 41.5% | 30.8% | 33.3% | 35.6%
6 | CC1=C2CC3C(CC=C4CC(O)CCC43C)C2CCC12OC1CC(C)CNC1C2C (stereo not given) [Cyclopamine, 11-deoxojervine] | 17.1% | 10.8% | 13.6% | 3.55% | 80.5% | 18.7% | 74.8% | 90.4%
7 | CCC(=O)CCCCC[C@@H]1NC(=O)[C@H]2CCCCN2C(=O)[C@H]([C@@H](C)CC)NC(=O)[C@H](Cc2cn(OC)c3ccccc23)NC1=O [Apicidin A, OSI-2040] | 10.6% | 12.6% | 14.5% | 12.7% | 55.5% | 50% | 33% | 32.8%
8 | Cn1cc(C2=C(c3cn(C4CCN(Cc5ccccn5)CC4)c4ccccc34)C(=O)NC2=O)c2ccccc21 | 90.5% | 72.6% | 81.5% | 75.3% | 37.8% | 41.9% | 27.9% | 45.9%
9 | O=C(O)CCCc1ccc(N(CCCl)CCCl)cc1 [Chlorambucil; NSC-3088; Leukeran] | 4.88% | 15% | 12% | 13.3% | 63% | 47.6% | 60.3% | 56.8%
10 | CCCC1COC(Cn2cncn2)(c2ccc(Cl)cc2Cl)O1 (stereo not given) [Propiconazole] | 12.4% | 10.1% | 6.81% | 9.09% | 52.5% | 31.7% | 65% | 44.4%
11 | O=C(CCCCC[C@@H]1NC(=O)[C@H]2CCCCN2C(=O)[C@H](Cc2ccccc2)NC(=O)[C@H](Cc2ccccc2)NC1=O)C1CO1 (stereo not given in full) [Trapoxin A, RF-1023-A] (cyclo(FF[dPip][Aoe(9ξ)])) | 45.9% | 20.2% | 27.6% | 5.02% | 2.74% | 1.56% | 0% | 0.31%
12 | COC[C@H]1OC(=O)c2coc3c2[C@@]1(C)C1=C(C3=O)[C@@H]2CCC(=O)[C@@]2(C)C[C@H]1OC(C)=O | 25.4% | 24% | 32.7% | 34.5% | 12.3% | 24.8% | 9.09% | 16.4%
13 | C/C(O)=C(\C#N)C(=O)Nc1cc(Br)ccc1Br | 11.1% | 10.7% | 9.93% | 10.7% | 12.3% | 25.8% | 41.3% | 20.4%
14 | COc1ccc2c(c[n+](C)c3c4cc5c(cc4ccc23)OCO5)c1OC [Chelerythrine chloride] | 8.92% | 9.42% | 35.4% | 21.1% | 66.9% | 23.6% | 6.15% | 31.1%
15 | O=C1Nc2ccc3ncsc3c2/C1=C/c1cnc[nH]1 [Imidazolo-oxindole PKR inhibitor C16] | 26.9% | 36.2% | 36.8% | 30.7% | 0% | 0% | 0% | 0%
16 | Cc1cc2c(C(C)C)c(O)c(O)c(C=O)c2c(O)c1-c1c(C)cc2c(C(C)C)c(O)c(O)c(C=O)c2c1O | 8.96% | 9.27% | 11.2% | 7.1% | 59.3% | 33.6% | 41.2% | 36.8%
17 | CN[C@@H]1C[C@H]2O[C@@](C)([C@@H]1OC)n1c3ccccc3c3c4c(c5c6ccccc6n2c5c31)C(=O)NC4 [Staurosporine] | 44.9% | 36.8% | 34.1% | 34.7% | 0% | 1.62% | 0% | 0.59%
18 | CCN1CCN(C(=O)Cc2ccc(Nc3ncc(F)c(Nc4ccc(C(=O)Nc5ccccc5Cl)cc4)n3)cc2)CC1 [Aurora A Inhibitor I] | 6.76% | 2.72% | 17.1% | 12.6% | 89.4% | 76.7% | 85% | 54.9%
19 | COc1ccc2c(c1)/C(=C/c1cnc[nH]1)C(=O)N2 | 14.5% | 19.5% | 27.1% | 29.4% | 2.2% | 2.54% | 4.17% | 0.62%
20 | CC(C)[C@H]1C(=O)N[C@H](CO)Cc2c[nH]c3cccc(c23)N1C [(-)-Indolactam V] | 10.5% | 6.95% | 7.56% | 5.97% | 60.8% | 48.3% | 40.4% | 37%
21 | CC(=O)c1c(O)c(C)c(O)c(Cc2c(O)c3c(c(C(=O)/C=C/c4ccccc4)c2O)OC(C)(C)C=C3)c1O [Rottlerin] | 13.8% | 8.1% | 20% | 1.71% | 0% | 30.3% | 0% | 3.08%
22 | O=C1NC(=O)c2c1c1c3ccccc3n3c1c1c2c2ccccc2n1[C@H]1CC[C@@H]3O1 | 13.4% | 12.1% | 18.8% | 15.9% | 9.62% | 3.46% | 8.27% | 7.57%
23 | C[C@@H]1O[C@@H](O[C@H]2CC[C@]3(C=O)[C@H]4CC[C@]5(C)[C@@H](C6=CC(=O)OC6)CC[C@]5(O)[C@@H]4CC[C@]3(O)C2)[C@H](O)[C@H](O)[C@H]1O [Convallatoxin] | 19.8% | 15.7% | 19% | 14.9% | 84.2% | 74.5% | 67.2% | 73.4%
24 | NC(=S)N/N=C/c1coc2ccccc2c1=O.[Cl][Cu][Cl] | 6.79% | 5.71% | 21.1% | 18.2% | 47.5% | 33.7% | 4.74% | 26.6%
25 | Cc1ccccc1-n1c(Cn2cnc3c(N)ncnc32)nc2cccc(C)c2c1=O | 20.6% | 16.8% | 11.7% | 16.7% | 18.6% | 5.76% | 56.9% | 18.6%
26 | CCn1cnc2c(Nc3cccc(Cl)c3)nc(N[C@@H]3CCCC[C@@H]3N)nc21 | 33.3% | 17.2% | 34.4% | 39.8% | 4.88% | 13.9% | 0.64% | 0%
27 | COc1ccc(CC2NCC(O)C2OC(C)=O)cc1 (stereo not given) | 37% | 32.4% | 47.1% | 33.3% | 11.2% | 8.48% | 3.43% | 0%
28 | CC(C)(C)C(O)(CCc1ccc(Cl)cc1)Cn1cncn1 (stereo not given) [Tebuconazole] | 8.7% | 4.01% | 8.08% | 9.72% | 60% | 41.5% | 57.5% | 45.1%
29 | C[C@]12O[C@H](C[C@]1(O)CO)n1c3ccccc3c3c4c(c5c6ccccc6n2c5c31)CNC4=O [Lestaurtinib, CEP-701, KT-5555, SPM-924] | 20% | 9.38% | 45% | 36.1% | 0% | 0% | 2.5% | 0%
30 | O=C1NC(=O)c2c1c1c3ccccc3[nH]c1c1[nH]c3ccccc3c21 [Arcyriaflavin A] | 76.5% | 79.5% | 82.1% | 80.7% | 8.46% | 7.14% | 2.32% | 2.15%
